Results reported in the RNAGym collection of RNA variant scans (doi:10.1073/pnas.2313332121).
Variants at the background level are over-represented here.

B1: TPR 5TU (parent)
chain: GGAUCUUCUCGAUCUAACAAAAAAGACAAAUCUGCCACAAAGCUUGAGAGCAUCUUCGGAUGCAGAGGCGGCAGCCUUCGGUGGCGCGAUAGCGCCAACGUUCUCAACUAUGACACGCAAAACGCGUGCUCCGUUGAAUGGAGUUUAUCAUG

Variants of: B1
Experiment: polymerase ribozyme fitness, log enrichment relative to wild type (log ratio); higher = more active; in vitro selection for triplet polymerase activity
How it was run: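 The heterodimeric triplet polymerase ribozyme's subunits were each mutagenized into PCR-built libraries and transcribed. Every library was selected once, in triplicate, by annealing with a biotinylated primer, the partner subunit and triplets, incubating frozen at −7 °C, gel-excising extended constructs, capturing on streptavidin beads and running RT-PCR. Input and output libraries were Illumina-sequenced, with genotypes kept only at ≥10 input reads and ≥1 read per output. Fitness, from inverse-variance-weighted replicate averages, is the base-2 logarithm of genotype enrichment over wild-type enrichment.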

| Variant | polymerase ribozyme fitness (log ratio) |
| --- | --- |
| G71A U82A G83C A110C U134G | ≤ -4.2 |
| C72U C76A | -1.91 |
| C72U U77C C96A A110G | ≤ -4.2 |
| G70C C87A A98U C99U A107U A122G G133U | ≤ -4.2 |
| C69A U101G C105G U139C | ≤ -4.2 |
| A73G C93U A122U G140A G143A U145G G152U | ≤ -4.2 |
| A73U A110C | ≤ -4.2 |
| G71C C95A | ≤ -4.2 |
| C72A G86U A91G C96U C103U C116G G133U G143C | ≤ -4.2 |
| C72G U82A U101G A107U A121C | ≤ -4.2 |
| G71U G94A A119G U139C A147C | ≤ -4.2 |
| G71C C85A A137U | ≤ -4.2 |
| C72U U82A C85A A107C C123U A147C U148C | ≤ -4.2 |
| C72A A73U C85G A138C U148C | ≤ -4.2 |
| A73G C85A G124A | -1.16 |
| A73C A113C | ≤ -4.2 |
| C72A C93G C95G | ≤ -4.2 |
| C72U G124A U146G | -1.3 |
| C69G C99A A115G | -3.71 |
| C69A C76G U90C | ≤ -4.2 |
| G70U C96G C103G | ≤ -4.2 |
| G71C A91C U102C C108G A120G A137C U151G | ≤ -4.2 |
| C72A A97U | ≤ -4.2 |
| C69U G128C U130C C132G U135A A138C | ≤ -4.2 |

| Variant | polymerase ribozyme fitness (log ratio) |
| --- | --- |
| G70A C85G | ≤ -4.2 |
| G70A C85U | -3.46 |
| A73G C87U | -1.55 |
| G68U U77A C96U | ≤ -4.2 |
| G71U A97U C103G A142U | ≤ -4.2 |
| G71U G94C A110G | ≤ -4.2 |
| A73G G126U | -0.214 |
| G70C G92A A98C | ≤ -4.2 |
| A73G G83C | -2.56 |
| A73U A91G C93A C105U G143A | ≤ -4.2 |
| C69U C72G G80C C85G A107G A110C U139G C149U | ≤ -4.2 |
| G71A U82G A110G | ≤ -4.2 |
| C69U G94A A122G U135A U146G | -2.95 |
| A73U G80A C93U U146G | -3.03 |
| G71A A107U G133C | ≤ -4.2 |
| A73C C95U | -2.49 |
| G71U C118A C123G C132U | ≤ -4.2 |
| C72A C75U C85U C99U | ≤ -4.2 |
| G71U A120G U146C | -2.36 |
| A73G C76U C87A A91U C93A G117C A120U G140A | ≤ -4.2 |
| G70U G92U A98G A147C | ≤ -4.2 |
| G70C A89U C96U U102G A107U | ≤ -4.2 |
| G70U A97G G143A U145G A147U | ≤ -4.2 |
| C69U U77A C87G U109C G124U | ≤ -4.2 |

| Variant | polymerase ribozyme fitness (log ratio) |
| --- | --- |
| C69U G80C | ≤ -4.2 |
| A73G G94C A106U C108U G143U | ≤ -4.2 |
| C72U U145A | 0.261 |
| C69A G81U G84U | ≤ -4.2 |
| C72U G88U C132G U135G U148G | ≤ -4.2 |
| C69U U78A A97U G143C | ≤ -4.2 |
| G71A G88A | ≤ -4.2 |
| G71A A89G | ≤ -4.2 |
| C72U A147C | -1.72 |
| A73G G86A A98U G117U C149U | -4.18 |
| C72U G88C | ≤ -4.2 |
| A73G C75U C87G C125U G141A | ≤ -4.2 |
| A73G G86U A91C | ≤ -4.2 |
| A73G U82A G94C G143A | ≤ -4.2 |
| G71A A91C | ≤ -4.2 |
| G68U U77G G80A | ≤ -4.2 |
| C69A C85U A106G A121C G124U G140C | ≤ -4.2 |
| G68U G94C C95A A115U G136U | ≤ -4.2 |
| G70A U90A C125A U135C | ≤ -4.2 |
| G71A C87U A91U C99U | ≤ -4.2 |
| C69U G136U U146C | -2.94 |
| C69A G92U | -1.15 |
| G68U C87A G152A | ≤ -4.2 |
| C69A G70C A106G C131U A137C | ≤ -4.2 |

| Variant | polymerase ribozyme fitness (log ratio) |
| --- | --- |
| G68U C132U U135A | ≤ -4.2 |
| C69G C75G | -2.12 |
| C69A A73C G86A A119C U145A | ≤ -4.2 |
| C72U G140A | ≤ -4.2 |
| G71A C87G A115G C118U G133U | ≤ -4.2 |
| G70C A97G | -3.97 |
| C69G C76A G152U | -4.17 |
| A73U C75A G86C A113G C125A | ≤ -4.2 |
| A73U C75A G92A | ≤ -4.2 |
| G71C G84A A119U | -2.68 |
| C69U G88U C93U C123G | ≤ -4.2 |
| A73G C93U G152A | -2.84 |
| C72A G84U U101A G133A | ≤ -4.2 |
| G71C C95U C96U C125A | ≤ -4.2 |
| C69A C87A C114G U145G | ≤ -4.2 |
| A73G U134C | 0.53 |
| A73U C85G C125A U135G A150U | ≤ -4.2 |
| G70A C79A C87G C99U U111C | ≤ -4.2 |
| G70U C87A A115U C116A U151A | ≤ -4.2 |
| G70C C87G C96G A107G U146G | ≤ -4.2 |
| A73G C85U U102G G124A | ≤ -4.2 |
| A73G C125G | -0.161 |
| G70U C93G A106G | ≤ -4.2 |
| G70C C85A G117C C132U | ≤ -4.2 |

| Variant | polymerase ribozyme fitness (log ratio) |
| --- | --- |
| C69G A91U C99U C125U G133A U134A | ≤ -4.2 |
| C72G U101G | ≤ -4.2 |
| C69A C76G G83A | ≤ -4.2 |
| C69A C75U A106G A120G | -2.33 |
| C72G U77A G83A C103A U139G | ≤ -4.2 |
| A73C C85G U146A | ≤ -4.2 |
| C72U A89U G128A | ≤ -4.2 |
| C69A C76A G83U G88U | ≤ -4.2 |
| A73U A150G | -2.68 |
| C69G A73U A98U A115G U134A U146G | ≤ -4.2 |
| G68U G80U C85G | ≤ -4.2 |
| A73G U77A | ≤ -4.2 |
| C69U G84U G133C | -3.62 |
| C69G A73G C75U A89U G94U A138G G140A A142C | ≤ -4.2 |
| G70U C114G A119C | ≤ -4.2 |
| A73G C96G A110U | ≤ -4.2 |
| A73C G84A U104A A107G U134G | ≤ -4.2 |
| G68U C149G | ≤ -4.2 |
| C69U G81U | -2.07 |
| A73C A115C | ≤ -4.2 |
| C69A C79A A115U C118A | ≤ -4.2 |
| G70C G80A A91U U104C A120U | ≤ -4.2 |
| A73G C87U C129A U134C A142U | ≤ -4.2 |
| C69A U101G G126A | -0.681 |

| Variant | polymerase ribozyme fitness (log ratio) |
| --- | --- |
| C69A A91G A98U G100A U134C | ≤ -4.2 |
| C69A U102G | ≤ -4.2 |
| C69A C87A G117A | ≤ -4.2 |
| C72U A91U A106C A115G A119U G143A U145G U151G | ≤ -4.2 |
| A73U A91C C93U | ≤ -4.2 |
| C69A C85U C93U | ≤ -4.2 |
| A73U C87U G92A | 0.224 |
| G71U G133A C149U | ≤ -4.2 |
| A73U C105G | -3.79 |
| C69U A98U | -1.15 |
| G71A C85G G92U G143A | ≤ -4.2 |
| A73G C95G C96U G124U C149U G152A | ≤ -4.2 |
| G68U G133U | ≤ -4.2 |
| G71A U144A A147C | ≤ -4.2 |
| C69A C85A G112U | ≤ -4.2 |
| A73U C76G G94A | ≤ -4.2 |
| C72U A91G A122U C149U | ≤ -4.2 |
| C69U G83A | -3.04 |
| G71U C85U C93A | ≤ -4.2 |
| G71C C87A C96A C99U | ≤ -4.2 |
| A73G G94U G117U G141C A142C U146C | ≤ -4.2 |
| C72G U90C G92A C105G | ≤ -4.2 |
| C72U G81A C95U | ≤ -4.2 |
| G71U G83C U146G | ≤ -4.2 |

| Variant | polymerase ribozyme fitness (log ratio) |
| --- | --- |
| G70U U78A C87G | ≤ -4.2 |
| G68U G88C | ≤ -4.2 |
| G71C C118G G141C | ≤ -4.2 |
| G70U G94C C118G A120G U127A G133U G143A | ≤ -4.2 |
| A73U C76G | ≤ -4.2 |
| C69U C76A G86C U146G | ≤ -4.2 |
| A73C C96A C105G C125U G136C | ≤ -4.2 |
| C69U U77G G92C C99U C103U U111A | ≤ -4.2 |
| G68U C93A | ≤ -4.2 |
| G68U C93U | ≤ -4.2 |
| G70A A91U U111G G136C | ≤ -4.2 |
| G70U G92C U151C | ≤ -4.2 |
| A73C G88U C95G U104A C125G U145G | ≤ -4.2 |
| A73G C79U C96U A142U | ≤ -4.2 |
| G70A U101A | ≤ -4.2 |
| C69G C93U | -3.1 |
| C72U A73U G83A | -2.51 |
| C72G C114G G124U | ≤ -4.2 |
| A73G U148C | -2.55 |
| C72U C85U C95U | -0.261 |
| A73U C118U | -0.982 |
| A73U C85U C103G C105G C116U A142G | ≤ -4.2 |
| C72G G83U C99G A107C G136C U146A | ≤ -4.2 |
